Results from paper PMC12794186, “Covalent Alkynylpyridopyrimidinones Targeting Cysteine 775 of the Epidermal Growth Factor Receptor Overcome Resistance to Current Therapies” (Journal of Medicinal Chemistry, 2025).

What was measured:
[1] = molecular target: recombinant triply mutated EGFR L858R, T790M, C797S kinase domain (mLTC-EGFR) (Homo sapiens, UniProt P00533, C797S/L858R/T790M); experiment: TR-FRET fluorescent probe displacement assay; assay type: binding
[2] = system: BaF3 EGFR del19/T790M/C797S cells; experiment: Ba/F3 growth inhibition (CellTiter Glo); assay type: cell-based, Murine; conditions: Mus musculus, BaF3, absence of IL-3, 72 h, read-out: dTC: del19/C797S GI50
Protocol: (§1) Growth inhibition in Ba/F3 cell lines were assessed in a 384-well format by CellTiter Glo assay (Promega) using the manufacturer’s recommended protocol. Cells were seeded on the day of compound addition and assessed following 72 h incubation including a vehicle only control. Ba/F3 EGFR-WT cells required supplementation with EGF (100 ng/mL, ThermoFisher, Cat No. PHG0311).

[3] = system: BaF3 EGFR L858R/T790M/C797S cells; experiment: Ba/F3 growth inhibition (CellTiter Glo); assay type: cell-based, Murine; conditions: BaF3, absence of IL-3, 72 h, read-out: LTC: L858R/T790M/C797S GI50
Protocol: as §1

[4] = system: BaF3 EGFR del19/T790M/C775A cells; experiment: Ba/F3 growth inhibition (CellTiter Glo); assay type: cell-based, Murine; conditions: Mus musculus, BaF3, absence of IL-3, 72 h, read-out: dTC2: del19/C775A GI50
Protocol: as §1

[5] = system: BaF3 EGFR L858R/T790M/C775A cells; experiment: Ba/F3 growth inhibition (CellTiter Glo); assay type: cell-based, Murine; conditions: BaF3 C775A mutant lines vs L858R/T790M and L858R/T790M/C797S
Protocol: as §1

H1975 C797S cells = experiment: Adherent cell growth inhibition (CyQUANT); assay type: cell-based; conditions: Homo sapiens, NCI-H1975; replenishment of compound every 72 h; read-out: H1975/C797S EGFR GI50
Protocol: For adherent cell assays, each cell line was plated on day 0 in a 96-well plate at a density known to allow for exponential growth over 72 h. After 24 h, the compounds were diluted to the required concentrations in DMEM + 10% FBS media, maintaining a consistent final DMSO concentration of 0.1%. The cells were then incubated for 72 h at 37 °C with 5% CO2. Growth inhibition was then assessed using a CyQUANT Direct Cell Proliferation assay (Invitrogen Cat No. C35011) following the manufacturer’s instructions. Fluorescence intensity (ex/em 480/520 nm) values were acquired using a PHERAstar microplate reader reader (BMG Labtech) and values were expressed as a percentage of the average DMSO treated value.

[6] = system: EGFR phosphorylation (Tyr1068) in H1975 (L858R, T790M) cells; experiment: HTRF cellular EGFR phosphorylation; assay type: cell-based, human; conditions: H1975 and H1975 C797S vs A431, HTRF
Protocol: (§2) Cells were plated at 20,000 cells per well in 96-well plates and placed at 37 °C with 5% CO2. Compounds were reconstituted in DMSO. Once adhered (after 24 h), cells were treated with compounds at a final concentration of 0.1% DMSO in media. Compounds were added to duplicate wells and incubated 37 °C for 3 h with 5% CO2. For A431 cells 0.5 h before the end of incubation; 100 ng/mL of EGF (Thermo Fisher, Cat. No. PHG0311) was added to all compound-treated cells as well as control. Compound and media were removed from the cells, and then 50 μL of HTRF lysis buffer was added (lysis buffer was diluted from 4× stock to 1× in deionized (DI) water, with 1% blocking agent also added). Cells were lysed on a plate shaker (2000 rpm) for 30 min at room temperature. pEGFR expression was assessed using the Human Phospho-EGFR (Tyr1068) cellular detection kit (Revvity, Cat. No. 64EG1PEH). Total EGFR expression was monitored using the Human Total EGFR cellular detection kit (Revvity, Cat. No. 64NG1PEH) as per the manufacturer’s instructions. […] Results were calculated as the ratio of pEGFR/total EGFR and then the percentage of 0 μM control.

[7] = molecular target: L858R/T790M-nanoLuc reporter EGFR in HEK293T cells (Homo sapiens, UniProt P00533, L858R/T790M); experiment: cell-based
[8] = system: EGFR phosphorylation (Tyr1068) in H1975 C797S cells; experiment: HTRF cellular EGFR phosphorylation; assay type: cell-based; conditions: Homo sapiens, NCI-H1975, mean ± SD of 4 experiments, read-out: H1975/C797S pEGFR IC50
Protocol: as §2

[9] = system: L858R/T790M/C797S (TM-EGFR); conditions: published fragment; reference number not given; cited from earlier work
[10] = system: BAF EGFR L858R/C797S cells; conditions: BAF EGFR cell line; published compound, reference number not given; cited from earlier work
[11] = TR-FRET, read-out: mLTC-EGFR IC50
[12] = TR-FRET, n > 3, read-out: mLTC-EGFR IC50
[13] = TR-FRET, n > 3, read-out: mLTC-EGFR pIC50 ± std dev (converted)

Structure (SMILES) | IC50 [1, 11] [nM] | IC50 [1, 12] | IC50 [1, 13] [nM] | further results
C#Cc1cc(-c2cnn3ccccc23)nc(Nc2ccccc2)n1 [Compound 2, 4-Ethynyl-N-phenyl-6-(pyrazolo[1,5-a]pyridin-3-yl)pyrimidin-2-amine] | 22000 ± 11000 |  |  | selectivity over the wild-type protein ([1]; mLTC-EGFR vs WT-EGFR, TR-FRET): 2 fold; IC50 ([1]; supplementary csv, read-out: TM pIC50 (converted)): 20000 nM
C#Cc1cc(=O)n(-c2ccccc2)c2nc(Nc3ccc(N4CCOCC4)cc3OC)ncc12 [Compound 5, 5-Ethynyl-2-((2-methoxy-4-morpholinophenyl)amino)-8-phenylpyrido[2,3-d]pyrimidin-7(8H)-one] |  | < 10 nM and 4.3 nM | 3.98 | 
C#Cc1cc(=O)n(-c2ccccc2)c2nc(Nc3ccc(N4CCOCC4)cc3)ncc12 [Compound 6, 5-Ethynyl-2-((4-morpholinophenyl)amino)-8-phenylpyrido[2,3-d]pyrimidin-7(8H)-one] |  | < 10 nM and 4.2 nM | 3.98 | 
C#Cc1cc(=O)n(-c2ccccc2)c2nc(Nc3ccc(N(C)CCN(C)C)cc3)ncc12 [Compound 7, 2-((4-((2-(Dimethylamino)ethyl)(methyl)amino)phenyl)amino)-5-ethynyl-8-phenylpyrido[2,3-d]pyrimidin-7(8H)-one] |  | < 10 nM and 5.6 nM | 5.01 | GI50 [2]: 52 ± 7 nM; GI50 [3]: < 100 nM; GI50 ([3]; Mus musculus, Ba/F3 EGFR, 72 h): 86 ± 12 nM; GI50 [4]: 1500 ± 450 nM; activity in C775A mutant cell lines [5]: significant loss of activity; GI50 (H1975 C797S cells): 2100 ± 1100 nM; margin to A431 (WT-EGFR), inhibition of EGFR phosphorylation [6]: > 10 fold; IC50 [7]: 190 ± 40 nM; IC50 [8]: 240 ± 37 nM
C#Cc1cc(=O)n(-c2ccccc2)c2nc(Nc3ccc(N4CCN(C)CC4)cc3OC)ncc12 [Compound 8, 5-Ethynyl-2-(2-methoxy-4-(4-methylpiperazine-1-ylphenyl)amino)-8-phenylpyrido[2,3-d]pyrimidin-7(8H)-one] |  | < 10 nM and 9.1 nM | 10 | 
C#Cc1cc(=O)n(-c2ccccc2)c2nc(Nc3ccc(N4CCN(C)CC4)cc3)ncc12 [Compound 9, 5-Ethynyl-2-((4-(4-methylpiperazin-1-yl)phenyl)amino)-8-phenylpyrido[2,3-d]pyrimidin-7(8H)-one] |  | < 10 nM and 3.6 nM | 3.98 | 
C#Cc1cc(=O)n(-c2ccccc2)c2nc(Nc3ccc(N(C)C(=O)COC)cc3OC)ncc12 [Compound 10, N-(4-((5-Ethynyl-7-oxo-8-phenyl-7,8-dihydropyrido[2,3-d]pyrimidin-2-yl)amino)-3-methoxyphenyl)-2-methoxy-N-methylacetamide] |  | 33 nM | 31.6 | 
C#Cc1cc(=O)n(-c2ccccc2)c2nc(Nc3ccc(N(C)C(=O)CCOC)cc3OC)ncc12 [Compound 11, N-(4-((5-Ethynyl-7-oxo-8-phenyl-7,8-dihydropyrido[2,3-d]pyrimidin-2-yl)amino)-3-methoxyphenyl)-3-methoxy-N-methylpropanamide] |  | 64 nM | 63.1 | 
C#Cc1cc(=O)n(-c2ccccc2)c2nc(Nc3ccc(N(C)C(=O)CN(C)C)cc3OC)ncc12 [Compound 12, 2-(Dimethylamino)-N-(4-((5-ethynyl-7-oxo-8-phenyl-7,8-dihydropyrido[2,3-d]pyrimidin-2-yl)amino)-3-methoxyphenyl)-N-methylacetamide] |  | 19 nM | 20 | 
C=CC(=O)Nc1cccc(-c2nn(C)c3ncnc(N)c23)c1 [Compound S1] | > 100000 |  | > 100000 | 
C#CC(=O)Nc1cccc(-c2nn(C)c3ncnc(N)c23)c1 [Compound S2] | 20000 |  | 20000 | 
C=CC(=O)NCc1cccc(-c2nn(C)c3ncnc(N)c23)c1 [Compound S3] | > 100000 |  | > 100000 | 
C=CC(=O)NCc1cc(=O)n(-c2ccccc2)c2nc(Nc3ccccc3OC)ncc12 [Compound S4] | > 100000 |  | > 100000 | 
C#CC(=O)NCc1cc(=O)n(-c2ccccc2)c2nc(Nc3ccccc3OC)ncc12 [Compound S5] | > 100000 |  | > 100000 | 
C=CC(=O)NCCOc1cccc(-c2nn(C)c3ncnc(N)c23)c1 [Compound S6] | > 100000 |  | > 100000 | 
C=CC(=O)NCCOc1ccc(-c2nn(C)c3ncnc(N)c23)cc1 [Compound S7] | > 100000 |  | > 100000 | 
C=CC(=O)Nc1ccccc1Oc1ccc(-c2nn(C)c3ncnc(N)c23)cc1 [Compound S8] | > 100000 |  | > 100000 | 
C#CC(=O)Nc1ccccc1Oc1ccc(-c2nn(C)c3ncnc(N)c23)cc1 [Compound S9] | 23000 |  | 25100 | 
COc1ccccc1Nc1ncc2ccc(=O)n(-c3ccccc3)c2n1 [Compound S10] | 7800 |  | 7940 | 
C=Cc1cc(=O)n(-c2ccccc2)c2nc(Nc3ccccc3OC)ncc12 [Compound S11] | 11000 |  | 10000 | 
CC#Cc1cc(=O)n(-c2ccccc2)c2nc(Nc3ccccc3OC)ncc12 [Compound S12] | > 100000 |  | > 100000 | 
C=CC(=O)Nc1cc(-c2cn(C)c3ccccc23)ncn1 [Lead C775-binding fragment] |  |  |  | IC50 [9]: 900 nM
C=CC(=O)Nc1cc(C(=O)Nc2nc3cccc(Cl)c3n2[C@@H]2CCCCN(C(=O)C=C)C2)cs1 [dual C775–C797 inhibitor] |  |  |  | GI50 [10]: 520 nM

“And” between values parts separate entries of the source, which are not always exact repeats. Equal values may be shown once. Read-outs that look alike come from different tables or passages of the source.
